Data published in PubChem BioAssay AID588855 (National Center for Advancing Translational Sciences (NCATS), 2011).
Hit rate of the full screen: of about 410,000 compounds, about 5,000 (1.2%) were called active. Inconclusive results, whose numbers are uncertain, are shown with a selection of clear calls. Calls come from the whole dose curve; as a rule, active = well fitted inhibition curve with a large enough effect; inconclusive = small, poorly fitted or top-dose-only effect; inactive = no such curve, though single readings can be large or run the other way. Potencies beside an inconclusive call are fits to weak or partial responses and may not hold up.

test: qHTS for Inhibitors of TGF-b; conditions: HepG2 CAGA-GFP TGF-b/SMAD3 reporter, GFP fluorescence, 18 h, TGF-beta stimulated, 500 pg/mL final; series mostly up to 46.1 µM; activity, negative = inhibition: at the top concentration; note: nearly all actives have a fitted effect of over 65% in size
How it was run: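 Smad-responsive CAGA-GFP expression was quantified in HEPG2 cells exposed to compounds and 500 pg/mL final TGF-beta for 18 h at 37 degrees C; unstimulated wells defined full inhibition.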
% is set by controls: 0 for no effect and ±100 for the full control effect; potency is the fitted concentration of half-maximal effect; tags give direction and shape of the fitted curve.

| SMILES | Potency | activity, negative = inhibition |
| --- | --- | --- |
| CC(C)c1ccccc1NC(=O)Nc1nc(C(N)Cc2ccc(C(F)(F)F)cc2)cs1 (stereo not given) | active: 11.2 µM | – |
| Cc1ncc(CO)c2c1Oc1nc(-c3ccccc3F)nc(SCC(=O)N(C)c3ccccc3)c1C2 | inconclusive: 35.5 µM [inhibitor, single point] | – |
| COC(=O)CC1(C(=O)OC)Oc2ccc(Br)cc2C(=O)N1c1cccc(Cl)c1Cl (stereo not given) | inconclusive: 35.5 µM [inhibitor, single point] | – |
| COc1ccc(/C=C2\Sc3ccc(C(=O)NCC4CCCO4)cc3N(C)C2=O)cc1 (stereo not given) | inconclusive: 20 µM [inhibitor, single point] | – |
| COc1cccc(-c2sc3ccccc3c2-c2ccc(OCCN3CCCC3)cc2)c1 | inconclusive: 35.5 µM [inhibitor, single point] | – |
| Cc1cccc(Cl)c1NC(=S)N1CCN(c2ccc([N+](=O)[O-])cn2)CC1 | – | inactive: 2.33% |
| O=C(Nc1ccc(F)cc1)Nc1ccc(NC(=O)c2ccccc2O)cc1 | – | inactive: 12.2% |
| CCc1cccc(NC(=O)COC(=O)c2cn(CC)c3nc(C)ccc3c2=O)c1 | inconclusive: 7.94 µM [inhibitor, partial curve, poor fit] | – |
| CC12C(=O)N(c3nccs3)C(=O)C1(C)C1CCC2O1 (stereo not given) | inconclusive: 28.2 µM [inhibitor, single point] | – |
| COc1ccc(Nc2ccc3c(c2)=NC2(CCCCC2)[N+]=3[O-])cc1 | active: 3.16 µM | – |
| COc1ccc(CNC(=O)CSCc2nc(-c3ccccc3C)oc2C)cc1 | inconclusive: 11.2 µM [inhibitor, partial curve, poor fit] | – |
| CC(C)NC(=O)c1ccc(-c2ccccc2C(F)(F)F)o1 | – | inactive: -2.7% |
| Cc1ccc(NC(=O)CSc2ccccc2)cc1S(=O)(=O)N1CCCCC1 | inconclusive: 25.1 µM [inhibitor, single point] | – |
| CC(C)(C)n1ncc2c(=O)n(Cc3cccc(Cl)c3Cl)cnc21 | – | inactive: 4.95% |
| CCc1ccc(-n2c(=O)c3c4c(sc3n(CC(=O)c3ccc(F)cc3)c2=O)CCC4)cc1 | inconclusive: 2.82 µM [inhibitor, single point] | – |
| O=[N+]([O-])c1ccccc1CNC(Cc1ccccc1)c1ccccc1 (stereo not given) | – | inactive: -19.1% |
| O=C(CSc1nc(-c2ccccc2)c(-c2ccccc2)o1)N1CCCCC1 | inconclusive: 28.2 µM [inhibitor, single point] | – |
| COC(=O)c1c(-c2ccccc2)csc1NC(=O)c1c(-c2ccccc2)noc1C | inconclusive: 3.55 µM [inhibitor, single point] | – |
| COc1ccc(-c2ccc3c(N)c(C(=O)c4ccc(OC)c(OC)c4)sc3n2)cc1 | inconclusive: 20 µM [inhibitor, single point] | – |
| COc1ccccc1OCCNC(=O)c1cc([N+](=O)[O-])cc([N+](=O)[O-])c1 | – | inactive: 4.16% |
| CCc1ccc(C(O)c2ncc(-c3cccc4ccccc34)[nH]2)cc1 (stereo not given) | inconclusive: 31.6 µM [inhibitor, single point] | – |
| CCCN1CCN(C(=O)c2ccc(S(=O)(=O)N(C)c3ccccc3OC)cc2)CC1 | – | inactive: 1.25% |

| SMILES | Potency | activity, negative = inhibition |
| --- | --- | --- |
| CCc1ccc(C(=O)c2cn(CC(=O)Nc3ccc4c(c3)OCO4)c3ccc(CC)cc3c2=O)cc1 | inconclusive: 2.51 µM [inhibitor, partial curve, poor fit] | – |
| Cc1ccc(NC(=O)C(Cc2c[nH]c3ccccc23)NC(=O)OC(C)(C)C)c(C)c1 (stereo not given) | – | inactive: -3.63% |
| CCCCNC(=O)N(O)C1N(/N=C/c2ccccc2OC)C(=S)SC1(C)C (stereo not given) | inconclusive: 2.24 µM [inhibitor, full curve, poor fit] | – |
| Cc1n[nH]c(C)c1S(=O)(=O)N(CC(=O)Nc1ccc2c(c1)OCCO2)c1ccc(C(C)C)cc1 | inconclusive: 35.5 µM [inhibitor, single point] | – |
| Cc1cccc(Oc2nc(-c3ccccc3)cc(C)c2S(C)(=O)=O)c1C | inconclusive: 0.562 µM [inhibitor, full curve, poor fit] | – |
| COc1ccc(C(=O)c2c[nH]c(C(=O)NCc3ccco3)c2)cc1 | – | inactive: 26.7% |
| Cc1ccc(Nc2nc3nonc3nc2Nc2cccc(C(F)(F)F)c2)cc1Cl | inconclusive: 1 µM [inhibitor, full curve] | – |
| COc1cccc(OCC(O)CN2CCN(c3ncccn3)CC2)c1 (stereo not given) | inconclusive: 15.8 µM [inhibitor, single point] | – |
| CCN1CCN(c2cc(C)c3cc(NC(=O)c4cccs4)ccc3n2)CC1 | – | inactive: 1.49% |
| CCOC(=O)C1=C(CN2CCN(c3ccc(OC)cc3)CC2)NC(=O)NC1c1ccc(OC)cc1 (stereo not given) | inconclusive: 7.94 µM [inhibitor, partial curve, poor fit] | – |
| Cc1cc(C(=O)NCC(=O)OCC(=O)Nc2ccc(OC(F)F)cc2)ccc1[N+](=O)[O-] | inconclusive: 2.82 µM [inhibitor, single point] | – |
| Cc1nn(CC(=O)Nc2cccc(O)c2)c(=O)c2ccccc12 | – | inactive: -0.284% |
| CC(C)=CCC/C(C)=C/CNC(=O)C[C@H]1C[C@H](C(=O)N2CCCCC2)[C@@]2(C)c3[nH]c4cc(-c5ccco5)ccc4c3CCN2C1=O | inconclusive: 11.2 µM [inhibitor, partial curve, poor fit] | – |
| O=C1Nc2ccc3c(c2C1=Cc1cc2c(cc1Br)OCO2)OCO3 | inconclusive: 1.26 µM [inhibitor, full curve] | – |
| COc1ccc(CN(C)C(=O)c2ccc(Oc3ccccc3)cc2)cc1F | inconclusive: 25.1 µM [inhibitor, single point] | – |
| CC(=O)SCC(=O)N=c1sc2cc(F)ccc2n1C | – | inactive: 5.76% |
| O=Cc1ccc(N2CCCC2)c([N+](=O)[O-])c1 | inconclusive: 35.5 µM [inhibitor, single point] | – |
| COc1cccc(-n2c(SCC(=O)N3c4ccccc4CC3C)nnc2-c2ccco2)c1 (stereo not given) | inconclusive: 14.1 µM [inhibitor, single point] | – |
| COc1ccccc1-n1nnnc1S(=O)(=O)Cc1ccc(Cl)cc1 | active: 7.08 µM | – |
| Cc1nn(-c2ccccc2)c(NC(=O)c2ccccc2)c1Br | – | inactive: 3.11% |
| O=C(NCC1CCCO1)c1cccc2c1C(=O)c1ccc(N3CCC(Cc4ccccc4)CC3)cc1S2(=O)=O (stereo not given) | inconclusive: 2.82 µM [inhibitor, single point] | – |
| C#CCOCCOCCOCCNc1nc(N2CCN(C(=O)CCCCCCCCCCNC(=O)Cn3cc(CCCCCN)nn3)CC2)nc(N2CCN(C(=O)CCCCCCCCCCNC(=O)[C@H]([C@@H](C)CC)n3cc(CCCCCN)nn3)CC2)n1 | inconclusive: 8.91 µM [inhibitor, partial curve, poor fit] | – |

| SMILES | Potency | activity, negative = inhibition |
| --- | --- | --- |
| CCN(CC(=O)NNC(=O)c1ccccc1)Cc1ccc(OC)c(F)c1 | – | inactive: 25.7% |
| COc1ccc(OCC(O)CN(C2CCCCC2)C2CCCCC2)cc1 (stereo not given) | – | inactive: -14.6% |
| COc1ccc(-c2cc3c(c4c2ccn4C)C2CCC3C2)cn1 (stereo not given) | inconclusive: 22.4 µM [inhibitor, single point] | – |
| Cc1cc(Nc2ccccc2F)n2nc(-c3ccccc3)nc2n1 | inconclusive: 17.8 µM [inhibitor, single point] | – |
| O=C(Nc1ccccc1C(=O)O)c1ccc(Br)c(S(=O)(=O)NCc2ccccc2)c1 | inconclusive: 2.82 µM [inhibitor, full curve, poor fit] | – |
| CC(C)CC(C(=O)Oc1ccc2c3c(c(=O)oc2c1)CCC3)N1C(=O)c2ccccc2C1=O (stereo not given) | inconclusive: 35.5 µM [inhibitor, single point] | – |
| O=C(NCCN1CCCCC1)Nc1cccc(C(F)(F)F)c1 | – | inactive: -11.7% |
| CC1(c2ccc3ccccc3c2)NC(=O)N(CC(=O)N2CCN(c3ccccc3O)CC2)C1=O (stereo not given) | inconclusive: 11.2 µM [inhibitor, partial curve, poor fit] | – |
| CCOc1ccc(Nc2oc(-c3ccc(COc4ccc(OC)cc4)o3)nc2C#N)cc1 | inconclusive: 4.47 µM [inhibitor, single point] | – |
| CCOC(=O)C1CCN(c2cc3c(cc2NC(=O)c2ccc(Cl)cc2)n(C)c(=O)n3C)CC1 | – | inactive: -1.4% |
| COC(=O)c1ccc(Cl)cc1NC(=O)N1CC2CCCN2c2ccccc21 (stereo not given) | – | inactive: -1.23% |
| Cc1ccc(S(=O)(=O)NNC(=O)C(=O)NNc2ccccn2)cc1 | – | inactive: 0% |
| COC(=O)[C@@H](NC(=O)NC1CCCc2ccccc21)C(C)C (stereo not given in full) | inconclusive: 10 µM [inhibitor, partial curve, poor fit] | – |
| CC(C)(C)NC(=O)C1(C)CCC(=O)N1C1CC1 (stereo not given) | inconclusive: 35.5 µM [inhibitor, single point] | – |
| O=C(Nc1cccc(Cl)c1)Nc1nc(-c2ccc(Cl)cc2)cs1 | inconclusive: 3.16 µM [inhibitor, full curve, poor fit] | – |
| CCCSC1=C(C#N)C(c2ccc(OC)cc2)C2=C(CC(C)(C)CC2=O)N1 (stereo not given) | inconclusive: 35.5 µM [inhibitor, single point] | – |
| Cc1cccc(Nc2nnc(SCc3cc(=O)n4cc(C)ccc4n3)s2)c1 | inconclusive: 12.6 µM [inhibitor, single point] | – |
| O=C1NC(=Nc2cccc(O)c2)S/C1=C\c1cccc([N+](=O)[O-])c1 | inconclusive: 22.4 µM [inhibitor, single point] | – |
| N#Cc1nc(-c2ccco2)oc1N1CCOCC1 | – | inactive: 0.0026% |
| CCCCCCN1C[C@H](O)[C@@H](n2cc(C3CC3)nn2)C[C@@H]1c1ccc(C)cc1 | inconclusive: 22.4 µM [inhibitor, single point] | – |
| CCOc1cc(/C=C(\C#N)C(=O)Nc2cccc(C(=O)O)c2)cc(Br)c1OC(=O)c1ccc(OC)cc1 | inconclusive: 35.5 µM [inhibitor, single point] | – |
